Data taken from US9695463B2, “DNA 5-methyl cytosine demethylation activity of vertebrate DNA methyltransferases” (Academia Sinica, priority 2012, dated 2017).

Biological target: T1, recombinant mouse DNMT3B (Mus musculus, UniProt O88509)
T1 construct: purchased BPS Bioscience; host or cells: recombinant baculovirus-infected Sf9 insect cells
Test: Effect of Ca2+, DTT, SAM and H2O2 on the DNA demethylation activity of recombinant DNMT3B (hydrolysis-TLC assay)
Format: biochemical
Conditions: 37°C, 4 h; for effect on the extent of conversion of 5-mC to C by DNMT3B (in words): 40 nM recombinant DNMT3B, buffer B, 1 mM CaCl2, 5 mM DTT, 160 μM SAM, H2O2 up to 10 mM
Method: M, mock control without incubation.
FIGS. 3A-B show the effects of a reducing condition and SAM on the DNA demethylation and methylation activities of DNMT3B. […] After incubation at 37° C. for 4 h, the DNA products were analyzed by the hydrolysis-TLC assay. The results are quantitatively presented in the histogram. […] After incubation at 37° C. for 4 h, the extents of C methylation of the DNAs from the different reactions were determined by hydrolysis-TLC assay and quantitatively compared in the histogram. Error bars indicate S.D.
Rx, reactions. […] M, mock control without incubation.

Row | SMILES | effect on the extent of conversion of 5-mC to C by DNMT3B (in words) | Ca2+ concentration at which the DNA demethylation activity of DNMT3B is highest (40 nM recombinant mouse DNMT3B, 0, 10 μM, 100 μM, 1 mM, 5 mM, 10 mM CaCl2) [mM]
1 | O[C@H](CS)[C@H](O)CS (racemic) [DTT, dithiothreitol] | greatly decreased | 
2 | [Ca+2].[Cl-].[Cl-] [Ca^2+, CaCl2] | significant DNA demethylation activity only in the presence of Ca^2+ | 1
3 | C[S+](CC[C@H](N)C(=O)O)C[C@H]1O[C@@H](n2cnc3c(N)ncnc32)[C@H](O)[C@@H]1O (some centres unmarked) [SAM, S-adenosylmethionine] | greatly reduced | 
4 | OO [H2O2] | did not affect | 
